Measurements: PubChem BioAssay AID686979 (National Center for Advancing Translational Sciences (NCATS), 2013)
Several values for one entry are separate records, joined by “and”; a condition that tells them apart may be missing. Equal entries are not always repeated. Hit rate of the full screen: of about 420,000 compounds, about 50,000 (12%) were called active. The shares of active, inactive and inconclusive entries below differ from those in the screen. The call rests on the fitted dose curve; in most records, active means well fitted inhibition curve with a large enough effect; inconclusive means small, poorly fitted or top-dose-only effect; inactive means flat fitted curve, though single readings scatter. Potencies of inconclusive entries are left out as doubtful fits.

test: qHTS for Inhibitors of human tyrosyl-DNA phosphodiesterase 1 (TDP1): qHTS in cells in presence of CPT; conditions: chicken DT40 Tdp1-/-;hTDP1 cells + 20 nM CPT, ATP luminescence, 48 h; activity change, negative = growth inhibition: at 46.2 µM (top of the series); further: nearly all actives have a fitted effect of over 55% in size
Procedure, shortened: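 Chicken DT40 Tdp1-/- cells complemented with human TDP1, 400 cells/well, exposed to compounds plus 20 nM camptothecin for at least 48 h at 37 C; viability read as ATP content by CellTiter-Glo luminescence.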
On the % scale 0 is the no-effect control and ±100 the full control effect; potency means the concentration at half of the fitted maximal effect; tags describe the fitted curve by direction and shape.

Structure (SMILES) | Potency | activity change, negative = growth inhibition
O=C(Cn1c(=O)oc2cc(S(=O)(=O)N3CCCCCC3)ccc21)Nc1cccc(C(F)(F)F)c1 | active: 8.2 µM | –
C=CCOC(=O)C1=C(C)NC(=S)NC1c1cccs1 (stereo not given) | inconclusive [inhibitor, single point] | –
N#Cc1c(-c2cccc(Br)c2)cc(-c2cccnc2)nc1N | inconclusive [inhibitor, partial curve, poor fit] | –
CC(C)=CCCC(C)NC(=O)NC1CCCCC1 (stereo not given) | inconclusive [inhibitor, partial curve, poor fit] | –
COCCCn1c(=O)c2sccc2n(Cc2ccccc2C)c1=O | inconclusive [inhibitor, partial curve] | –
COc1cc2[nH]c(=O)n(CCC(=O)N3CCN(c4cc(Cl)ccc4C)CC3)c(=O)c2cc1OC | inconclusive [inhibitor, single point] | –
CCOC(=O)[C@@H]1[C@H]2COc3ccc(Br)cc3[C@@H]2N2C(=O)N(c3cccc(F)c3)C(=O)[C@@]12C | active: 25.9 µM | –
CCCCN=C1NC(=O)C(CC(=O)Nc2ccc(Cl)cc2)S1 (stereo not given) | inconclusive [inhibitor, single point] | –
Cc1ccccc1CNC(=O)c1ccc(NC(=O)c2nsc3ccccc23)cc1 | active: 14.6 µM | –
CC(=O)N1CCN(c2ccc(NC(=O)c3ccccc3Br)cc2Cl)CC1 | inconclusive [inhibitor, single point] | –
Cc1nc(N)sc1-c1csc(Nc2ncccn2)n1 | active: 16.4 µM | –
Cc1ccc(N=C2NC(=O)/C(=C\c3ccc(C)s3)S2)cc1 | – | inactive: -16.3%
C=CCNC(=S)NNC(=O)C(CCCC)CC(C)(C)O (stereo not given) | active: 8.2 µM | –
C/C(=N\NC(=O)CSc1nc(C)cc(C)n1)c1cccs1 | – | inactive: 8.59%
COC(=O)c1ccccc1NC(=O)C(C)NS(=O)(=O)c1ccc(OC)cc1 (stereo not given) | inconclusive [inhibitor, single point] | –
COC(=O)c1ccc(COc2ccc(/C=C(\C#N)c3nc4ccccc4[nH]3)cc2OC)o1 | active: 7.31 µM | –
O=S(=O)(NCCNCC=Cc1ccc(Br)cc1)c1cccc2cnccc12 | active: 10 µM | –
COc1ccc(-c2cc(C(F)(F)F)c(C#N)c(SCC(=O)Nc3ccccc3C#N)n2)cc1 | inconclusive [inhibitor, single point] | –
Cc1cccc(NC(=O)Nc2nnc(N(C)C3CCCCC3)s2)c1C | – | inactive: -1.94%
Cc1cc(C)nc(NC2=NCCN2C(=O)NC2CCCCC2)n1 | inconclusive [inhibitor, single point] | –
O=C(N/N=C\c1ccc(COc2ccc([N+](=O)[O-])cc2)o1)c1ccc(Cl)cc1 | inconclusive [inhibitor, single point] | –
COc1cccc2cc(-c3cc(=O)oc4ccc(OCC(C)=O)cc34)oc12 | inconclusive [inhibitor, partial curve, poor fit] | –
O=C(OCCOc1ccccc1)c1cc(S(=O)(=O)N2CCOCC2)c(Cl)cc1Cl | – | inactive: -22.7%
COc1cc(C(=O)NCC(c2ccco2)N2CCCC2)ccc1OCc1ccc(Cl)cc1Cl (stereo not given) | inconclusive [inhibitor, single point] | –

Structure (SMILES) | Potency | activity change, negative = growth inhibition
C[C@H](CO)N1C[C@H](C)[C@@H](CN(C)Cc2ccccn2)Oc2ncc(Br)cc2C1=O | – | inactive: 4.32%
C=CCn1c(Oc2cc(C)ccc2C)nc2c1c(=O)n(C)c(=O)n2C | active: 14.6 µM | –
O=C(O)CCC(=O)N1CCN(c2nc(-c3ccccc3)c3cc(Br)ccc3n2)CC1 | inconclusive [inhibitor, single point] | –
COc1ccccc1C(=O)NC(CCSC)C(=O)NNC(=O)c1ccccc1C (stereo not given) | – | inactive: 7.15%
CN(C(=O)c1ccccc1)C(=O)c1ccccc1 | – | inactive: -20.3%
O=C(OC1CCc2ccccc2C1=O)c1ccccc1O (stereo not given) | active: 23.1 µM | –
COCCNC(=O)C1(C)CCCN(Cc2ccc(Cl)c(Cl)c2)C1 (stereo not given) | active: 20.6 µM | –
Cc1ccc(N2C(=O)C3C4C=CC(CNC(=S)N5CCN(c6ccccn6)CC5)(O4)C3C2=O)cc1 (stereo not given) | active: 23.1 µM | –
OC[C@@H]1[C@@H](c2ccc(Cl)cc2)C(c2cccc(Cl)c2)=NN1c1ccccc1 | active: 20.6 µM | –
O=C(NC1CCCCC1)C(c1ccc2ncccc2c1)N(Cc1cccs1)C(=O)c1cccs1 (stereo not given) | inconclusive [inhibitor, single point] | –
OC1(c2cccs2)CN(c2ccc(Cl)cc2)C2=[N+]1CCCC2 (stereo not given) | inconclusive [inhibitor, full curve, poor fit] | –
CCOC(=O)c1sc(C)c2c1NC(C)(c1cccs1)NC2=O (stereo not given) | inconclusive [inhibitor, partial curve] | –
O=c1c(CCc2ccccc2)nc2cnc(N3CCOCC3)nc2n1C1CC1 | inconclusive [inhibitor, full curve, poor fit] | –
CC(=O)N1c2ccc(S(=O)(=O)NCC3CCC(C(=O)N4CC(C)CC(C)C4)CC3)cc2CC1C (stereo not given) | active: 16.4 µM | –
CC(=O)NC(C)(c1ccccc1)c1nc(-c2csc3ccccc23)cs1 (stereo not given) | active: 20.6 µM | –
O=C(CCC(=O)N1Cc2ccccc2Oc2ncccc21)Nc1ccc(Cl)cc1 | inconclusive [inhibitor, single point] | –
Cc1cc(C(C)(C)C)ccc1OCCOCCN1CCCC1 | inconclusive [inhibitor, single point] | –
O=C(NCC1CCCC(CNC(=O)N2CCc3ccccc32)C1)N1CCc2ccccc21 (stereo not given) | – | inactive: -25.1%
CC1(C(=O)NCc2ccccc2Br)CCN1Cc1ccc(-c2ccccc2)o1 (stereo not given) | inconclusive [inhibitor, single point] | –
NC(=O)c1ccc(Nc2nc(C(N)c3ccccc3Cl)cs2)cc1 (stereo not given) | inconclusive [inhibitor, single point] | –
CC1CCCN(S(=O)(=O)c2ccc(C(=O)Nc3nnc(-c4ccccc4Cl)o3)cc2)C1 (stereo not given) | active: 2.91 µM | –
O=c1nc2sc3ccccc3n2c(=O)n1-c1cccc(Cl)c1 | inconclusive [inhibitor, single point] | –
NNC(=O)c1[nH]c2ccc([N+](=O)[O-])cc2c1-c1ccccc1 | active: 20.6 µM | –
O=C(c1ccc(Cl)cc1)N1N=CCC1(O)c1ccc(Cl)cc1 (stereo not given) | inconclusive [inhibitor, single point] | –

Structure (SMILES) | Potency | activity change, negative = growth inhibition
CCOC(=O)N1CCN(C(=O)CSCC(=O)Nc2nc(-c3cccs3)cs2)CC1 | inconclusive [inhibitor, partial curve] | –
COc1ccc2nc(NCc3ccc(OC)c(OC)c3OC)sc2c1 | inconclusive [inhibitor, single point] | –
CCOc1cccc(CN2CCC(Oc3ccc(C(=O)N4CCCC4)cc3)CC2)c1O | inconclusive [inhibitor, single point] | –
O=S(=O)(c1ccc(OC(F)(F)F)cc1)N1CCC(O)(c2cccc(C(F)(F)F)c2)CC1 | inconclusive [inhibitor, single point] | –
CCCN(CCC)C(=O)/C=C/c1cccc([N+](=O)[O-])c1 | inconclusive [inhibitor, single point] | –
Cc1ccc(CN(c2ccc(C(=O)NCc3cccnc3)cc2)S(C)(=O)=O)cc1 | inconclusive [inhibitor, single point] | –
CCNc1ncc2nc(-c3ccc(OC)cc3)c(=O)n(C)c2n1 | inconclusive [inhibitor, partial curve, poor fit] | –
COc1ccccc1NS(=O)(=O)c1cccc(NC(=O)NC2CCCCC2)c1 | inconclusive [inhibitor, single point] | –
COc1cc(N2C(=O)C=CC2=O)c(OC)cc1Cl | active: 1.84 µM | –
Cc1ccc(C(=O)C[n+]2cc(-c3ccccc3)n3c2CCCCC3)cc1 | active: 5.62 µM and active: 1.64 µM | –
Cc1cc(C)nc(N/N=C/c2cccc3ccccc23)n1 | inconclusive [inhibitor, single point] | –
COc1ccc(OC)c(NC2=C(c3ccccc3)C(=O)c3ccccc32)c1 | active: 1.46 µM | –
COc1ccc(N2CCN(C(=O)c3cc4c(-c5ccccc5F)nn(C)c4s3)CC2)cc1 | inconclusive [inhibitor, single point] | –
O=C(O)CCCCCn1c(SCc2cc(=O)n3ccccc3n2)nc2ccsc2c1=O | inconclusive [inhibitor, single point] | –
CCCn1c(-c2cc(OC)c(OC)c(OC)c2)nc2c1c(=O)[nH]c(=O)n2Cc1ccccc1 | active: 3.26 µM | –
COc1ccc(NC(=O)COc2cccc3c2OC(C)(C)C3)c(OC)c1 | inconclusive [inhibitor, single point] | –
COc1ccccc1N1CCN(C(=O)c2c(-c3ccccc3Cl)noc2C)CC1 | inconclusive [inhibitor, single point] | –
COc1ccc(/C=N/Nc2nnc(-c3ccccc3)c(=O)[nH]2)cc1 | active: 11.6 µM | –
COC(=O)c1ccc(Cl)cc1NC(=O)N1CC=C(c2c[nH]c3ccccc23)CC1 | active: 14.6 µM | –
Cc1ccc(/C=N/NC(=O)c2c[nH]c3ccccc23)s1 | – | inactive: -22.1%
CCN(CC)c1nc(-c2ccc(C(C)(C)C)cc2)nc2ccccc12 | active: 23.1 µM | –
CCc1nc2c(OCc3ccc(C(=O)N(C)C)cc3)cccn2c1N(C=O)Cc1ccccc1 | inconclusive [inhibitor, partial curve, poor fit] | –
